Measurements taken from PubChem BioAssay AID504339 (National Center for Advancing Translational Sciences (NCATS), 2011).
Among all 390,000 compounds or so, about 17,000 (4.4%) were called active. This list was built around the results that the source calls inconclusive (neither active nor inactive); the mix of calls is not that of the screen. The call rests on the fitted dose curve; in most records, active means well fitted inhibition curve with a large enough effect; inconclusive means small, poorly fitted or top-dose-only effect; inactive means no such curve, though single readings can be large or run the other way. A potency beside an inconclusive call is a rough fit, not a confirmed value.

Each compound was assayed against Lysine-specific demethylase 4A (Homo sapiens) (UniProt O75164) (assay: qHTS Assay for Inhibitors of JMJD2A-Tudor Domain). Conditions: AlphaScreen JMJD2A-Tudor / H3K4me3 peptide binding; series mostly up to 114 µM.
Chain of UniProt O75164 (O75164 whole entry, looked up, the tested form may be a part): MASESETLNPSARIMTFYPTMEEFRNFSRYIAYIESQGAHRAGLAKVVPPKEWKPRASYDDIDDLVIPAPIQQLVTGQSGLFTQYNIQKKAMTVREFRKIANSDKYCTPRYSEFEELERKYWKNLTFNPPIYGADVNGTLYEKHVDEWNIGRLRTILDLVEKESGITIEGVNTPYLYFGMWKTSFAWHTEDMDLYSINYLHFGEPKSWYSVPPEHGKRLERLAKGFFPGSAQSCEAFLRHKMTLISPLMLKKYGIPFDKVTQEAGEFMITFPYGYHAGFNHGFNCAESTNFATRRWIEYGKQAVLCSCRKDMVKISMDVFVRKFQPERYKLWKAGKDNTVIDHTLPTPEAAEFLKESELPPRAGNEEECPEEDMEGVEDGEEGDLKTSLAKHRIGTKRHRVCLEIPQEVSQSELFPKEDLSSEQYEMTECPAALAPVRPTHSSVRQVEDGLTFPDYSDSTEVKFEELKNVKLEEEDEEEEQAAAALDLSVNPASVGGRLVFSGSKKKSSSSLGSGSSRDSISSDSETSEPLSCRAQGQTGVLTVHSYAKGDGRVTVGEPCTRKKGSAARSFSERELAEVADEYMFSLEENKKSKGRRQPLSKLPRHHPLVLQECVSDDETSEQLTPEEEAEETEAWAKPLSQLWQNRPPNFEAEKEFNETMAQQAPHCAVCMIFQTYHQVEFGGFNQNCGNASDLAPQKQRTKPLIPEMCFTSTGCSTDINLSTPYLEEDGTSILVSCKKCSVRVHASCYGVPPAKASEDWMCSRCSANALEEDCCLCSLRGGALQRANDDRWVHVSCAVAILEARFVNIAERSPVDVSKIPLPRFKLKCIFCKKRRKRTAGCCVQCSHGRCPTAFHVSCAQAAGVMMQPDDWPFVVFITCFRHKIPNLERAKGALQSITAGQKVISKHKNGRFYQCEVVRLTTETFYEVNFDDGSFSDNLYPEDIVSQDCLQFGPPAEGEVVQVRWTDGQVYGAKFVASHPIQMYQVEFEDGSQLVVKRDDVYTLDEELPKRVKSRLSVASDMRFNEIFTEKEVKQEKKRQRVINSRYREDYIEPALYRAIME
Further: nearly all actives have a fitted effect of over 50% in size.
Potency means the concentration at half of the fitted maximal effect; tags describe the fitted curve by direction and shape.

Row | Structure (SMILES) | Potency
1 | O=C(Oc1ccc([N+](=O)[O-])cc1)c1ccc2ccccc2n1 | active: 28.2 µM
2 | CCOC(=O)c1c(C)oc2c1c(CN1CCN(CCO)CC1)c(O)c1ccccc12 | inconclusive: 10 µM [inhibitor, full curve]
3 | COc1ccc(Cl)cc1NC(=O)CN(C)C(=O)c1ccc(N2CCCCCC2)c([N+](=O)[O-])c1 | inconclusive: 35.5 µM [inhibitor, full curve]
4 | CNC(=O)c1c(NC(=O)Cc2coc3ccc(C)cc23)sc2c1CCCC2 | inconclusive: 89.1 µM [inhibitor, partial curve, poor fit]
5 | Cc1nc(SCC(=O)NCc2ccco2)c2c(C)c(C)sc2n1 | inactive
6 | CCc1nn(CC(=O)Nc2c(C)cccc2C)c(=O)c2cc3sccc3n12 | inactive
7 | COc1ccc(-c2cc(OC(=O)c3cccc(Cl)c3)c3c(C)oc(C)c3c(=O)c2)cc1 | inconclusive: 50.1 µM [inhibitor, partial curve]
8 | CCOc1ccc(NC(=O)Cn2nnc(C(=O)NCCc3ccccc3)c2N)cc1 | inactive
9 | COc1cccc(CN2C(=O)c3ccccc3NC2c2ccc(OC)c(COc3ccc(NC(C)=O)cc3)c2)c1 (centres undefined) | inconclusive: 50.1 µM [inhibitor, partial curve]
10 | Nc1c(C(=O)c2ccccc2)sc(Nc2ccccc2)c1S(=O)(=O)c1ccccc1 | inconclusive: 7.94 µM [inhibitor, full curve, poor fit]
11 | COc1ccc(C(=O)NN2CC(O)=C(c3nc4ccccc4n3C)C2=N)cc1OC | active: 4.47 µM
12 | Cc1ccc(C(=O)NC(=S)Nc2ccc3c(c2)OCCO3)c(C)c1 | inconclusive: 56.2 µM [inhibitor, partial curve]
13 | COc1ccccc1N(CC(=O)NC1CCCCC1)C(=O)CCC(=O)Nc1nccs1 | inactive
14 | COc1ccc(NC(=S)NNS(=O)(=O)c2ccc3ccccc3c2)c(OC)c1 | active: 25.1 µM
15 | CC1(c2ccccc2)NC(=O)N(CC(=O)Nc2ccccc2C(=O)NC2CC2)C1=O (centres undefined) | inactive
16 | CCCc1nnc(NC(=O)CN2C(=O)c3ccccc3S2(=O)=O)s1 | inconclusive: 11.2 µM [inhibitor, full curve, poor fit]
17 | O=C(NCc1ccc(F)cc1)C1CCCN1C(=O)Nc1cccc(F)c1 (centres undefined) | inactive
18 | O=C(c1ccc2c(c1)OCO2)C1CCCN(Cc2cccn2-c2cccnc2)C1 (centres undefined) | inconclusive: 50.1 µM [inhibitor, partial curve]
19 | COc1cc(C(=O)NC(=S)N(CCC#N)Cc2cccnc2)cc(OC)c1OC | inconclusive: 11.2 µM [inhibitor, full curve]
